# Measurements published in PMC4336329 (PLoS ONE, 2015).
# The campaign covered roughly 310,000 compounds. About 2,200 (0.71%) showed an effect of 50% or more. The effect is printed as a negative number. This is one part of the list.
# Molecular target: human ether-à-go-go-related gene (hERG) potassium channel (human, UniProt Q12809)
# Assay: primary screen, population patch clamp on CHO cells stably expressing hERG
# Sequence of human ether-à-go-go-related gene (hERG) potassium channel (Q12809 whole entry, looked up): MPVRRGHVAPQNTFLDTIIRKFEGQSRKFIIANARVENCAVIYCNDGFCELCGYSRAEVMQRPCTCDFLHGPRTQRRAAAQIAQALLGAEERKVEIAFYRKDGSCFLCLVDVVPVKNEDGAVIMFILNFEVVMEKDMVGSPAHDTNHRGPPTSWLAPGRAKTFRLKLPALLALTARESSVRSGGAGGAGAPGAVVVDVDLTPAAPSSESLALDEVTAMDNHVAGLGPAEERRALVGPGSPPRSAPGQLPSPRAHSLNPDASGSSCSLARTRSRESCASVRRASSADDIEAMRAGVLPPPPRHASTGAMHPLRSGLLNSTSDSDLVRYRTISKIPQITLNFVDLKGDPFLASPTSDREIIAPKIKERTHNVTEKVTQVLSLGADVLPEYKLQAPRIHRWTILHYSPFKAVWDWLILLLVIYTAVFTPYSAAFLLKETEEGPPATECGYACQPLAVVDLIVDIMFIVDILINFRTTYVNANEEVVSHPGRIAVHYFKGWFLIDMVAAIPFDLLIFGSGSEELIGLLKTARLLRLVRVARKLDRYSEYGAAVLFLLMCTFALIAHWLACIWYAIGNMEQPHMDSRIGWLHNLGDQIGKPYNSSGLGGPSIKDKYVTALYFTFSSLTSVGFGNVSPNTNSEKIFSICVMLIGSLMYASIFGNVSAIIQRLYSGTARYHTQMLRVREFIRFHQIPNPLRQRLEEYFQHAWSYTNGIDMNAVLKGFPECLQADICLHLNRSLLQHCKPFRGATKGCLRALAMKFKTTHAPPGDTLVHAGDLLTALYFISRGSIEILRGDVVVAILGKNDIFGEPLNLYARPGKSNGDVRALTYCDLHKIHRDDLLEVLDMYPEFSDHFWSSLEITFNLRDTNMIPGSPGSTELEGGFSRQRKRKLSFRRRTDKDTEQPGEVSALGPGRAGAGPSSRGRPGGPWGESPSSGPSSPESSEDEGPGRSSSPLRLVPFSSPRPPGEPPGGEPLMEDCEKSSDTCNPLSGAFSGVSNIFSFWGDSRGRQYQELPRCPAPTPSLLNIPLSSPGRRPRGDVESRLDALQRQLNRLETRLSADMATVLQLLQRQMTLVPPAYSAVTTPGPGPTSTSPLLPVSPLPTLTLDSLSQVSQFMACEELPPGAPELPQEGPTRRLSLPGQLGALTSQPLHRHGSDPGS
row,Structure (SMILES),"hERG current change (%, negative = inhibition) at 1uM [%]"
1,COc1ccccc1N(CC(=O)Nc1c(C)cccc1C)S(C)(=O)=O,2.42
2,COc1ccc(N2CCN(S(=O)(=O)CCNC(=O)C34CC5CC(CC(C5)C3)C4)CC2)cc1,21.7
3,CCOC(=O)Cn1nc(C)c(NC(=O)COc2ccccc2[N+](=O)[O-])c1C,9.44
4,CC(C)Cn1c(CN2CCCCC2C)nc2c1c(=O)n(C)c(=O)n2C (centres unmarked),14.8
5,COc1ccc(-c2nc(N3CCC(C)CC3)[nH]c(=O)c2C#N)cc1,10.7
6,Fc1ccc(-c2nnc(CSc3nnc4ccccn34)o2)cc1,-0.267
7,CSCC[C@H](NC(=O)C1CCN(C(=O)[C@@H](N)Cc2ccccc2)CC1)C(=O)O,11.7
8,CCCc1cc(=O)[nH]c(SCC(=O)N(CC)Cc2ccccc2)n1,8.87
9,Clc1ccc2c(c1)C(OC1CN3CCC1CC3)c1ccccc1CS2.O=C(O)/C=C\C(=O)O (centres unmarked),-7.47
10,N#Cc1nc(COc2ccccc2)oc1N1CCN(c2cccc(Cl)c2)CC1,3.23
11,CSc1ccccc1NC(=O)N1CCC(CO)(CC2CCCCO2)CC1 (centres unmarked),15.5
12,CCCc1cc(=O)[nH]c(Nc2cc(OC)ccc2OC)n1,4.82
13,CC(=O)Nc1nnc(SCC(=O)NC2CCCC2)s1,16.2
14,Cc1ccccc1-n1nnnc1SC(C)C(=O)NC1CCCc2ccccc21 (centres unmarked),0.307
15,Cc1cc(Cn2nc(-c3ccccc3)cc2C(=O)NCC2CC2)on1,16.7
16,COc1ccc(N(CC(=O)NC2CC3CCC2C3)S(=O)(=O)c2ccc(C)cc2)cc1OC (centres unmarked),29.4
17,CCOc1ccc(-c2nnn(CCC#N)n2)cc1OC,12.8
18,Cc1ccc2c(C)c(C(=O)Nc3ccc(S(=O)(=O)Nc4onc(C)c4C)cc3)oc2c1,9.22
19,Nn1c(Cc2ccc(F)cc2)n[nH]c1=S,8.02
20,CCC(Cc1ccccc1)NC(=O)C1CCN(c2nn3c(=O)cc(C)nc3s2)CC1 (centres unmarked),10.4
21,COc1cccc(NCc2cc(=O)oc3cc(C)c(C(C)C)cc23)c1,14.4
22,COc1ccccc1N1CCN(Cc2c[nH]c3ccccc23)CC1,-9.46
23,c1cc2c(cc1C1CCCCC1)c1c3n2CCN=C3CCC1,11.4

row,Structure (SMILES),"hERG current change (%, negative = inhibition) at 1uM [%]"
1,CC(=O)c1ccc(NC(=O)Nc2ccc([N+](=O)[O-])cc2C)cc1,1.37
2,NC(=S)N=Nc1c(O)n(Cc2ccc(F)cc2)c2ccccc12,14.5
3,COCCn1c(C)cc(/C=C2\NC(=S)N(C)C2=O)c1C,9.65
4,O=Cc1cc(N=Nc2ccc(S(=O)(=O)[O-])cc2)ccc1O.[Na+],21.8
5,COc1cc(SC)ccc1C(=O)Nc1ccccc1C#N,15.1
6,COc1cc(/C=N/NC(=O)c2cc3ccccc3cc2O)ccc1OCCN1CCCCC1,-2.7
7,COc1ccc(C(=O)CNc2ccccc2C#N)cc1,2.43
8,COc1ccc(CC(C)NC2CCCCCC2)cc1 (centres unmarked),13.6
9,O=C(/C=C\Nc1ccc(Cl)cn1)c1ccc(Br)cc1,9.66
10,O=C(CSc1ccc(Cl)cc1)OCc1nnc(-c2ccccc2)o1,6.44
11,CC(N=c1ccccn1C(=O)Nc1cccc(C(F)(F)F)c1)c1ccco1 (centres unmarked),6.89
12,CC(/C=C/c1ccccc1)=N/NC(=O)C(O)c1ccccc1 (centres unmarked),49.2
13,COc1ccccc1CC(=O)Nc1ccc(NC(=O)c2cccs2)cc1,-7.36
14,C#CCNC(=O)C1=C[C@@H](c2ccccc2)[C@H](CCCO)[C@@H](OCC)O1,15.8
15,O=C(c1cc2sccc2n1Cc1ccccc1)N1CCN(c2nc3ccccc3s2)CC1,-3.98
16,CC(C)C(=O)Nc1nnc(NC(=S)Nc2ccccc2)s1,13.4
17,Cc1ccc2nc(SCC(=O)N3CCN(c4ccccc4)CC3)[nH]c2c1,4.32
18,CC(=O)Nc1cccc(/C(C)=N/Nc2nc3ccccc3s2)c1,4.79
19,N#C/C(=C\c1cn(CC(=O)O)c2ccccc12)C(=O)NCc1ccccc1,9.65
20,CCC(=O)Nc1ccc(/C(C)=N\NC(=O)c2ccc(C)s2)cc1,9.67
21,CCC1(CC)C(=O)NC(=Nc2cccc(C(F)(F)F)c2)NC1=O,10.6
22,COc1cc(C(c2oc(CO)cc(=O)c2O)c2oc(CO)cc(=O)c2O)cc(OC)c1OC,10.1
23,O=C(Nc1cccc(Cl)c1)Nc1ccc2c(c1)C(=O)OC2,7.62

row,Structure (SMILES),"hERG current change (%, negative = inhibition) at 1uM [%]"
1,O=C(NCCNC(=O)c1cc(Cl)ccc1Cl)c1ccco1,-1.6
2,COc1ccc(C(=O)Nc2cc3c(cc2Cl)OCCCO3)cc1,16.3
3,CCCN1CCN(C(=O)Nc2ccc(OCC)cc2)CC1,6.8
4,Cl.Clc1cccc(OCCn2ccnc2)c1,19
5,Cc1cc(C)n(C(=O)CNC(=O)CCc2ccccc2)n1,5.25
6,COc1ccc(-n2c(SCC(=O)N3CCc4ccccc43)nnc2-c2c[nH]c3ccccc23)cc1,19.3
7,COc1ccc(C=C2C(=O)OC(C)(C)OC2=O)cc1OC,11.6
8,COc1ccc(CSCC(=O)Nc2ccccc2SC)cc1,6.3
9,CC(NC(=O)COc1cc(=O)n(C)c2ccccc12)c1ccc2c(c1)OCCO2 (centres unmarked),10.1
10,CC(C)(C)C1CCC(=NNc2nc3ccccc3[nH]2)CC1 (centres unmarked),11.2
11,CCOc1ccc(CN2CCN(C3CCC3)CC2CCO)cc1 (centres unmarked),3.11
12,Cc1cccc(NC(=S)NCCc2ccccc2)c1C,9.44
13,CCCC(=O)OCCNc1cc(SCCC(=O)OC)c2nonc2c1[N+](=O)[O-],8.34
14,O=C(C1CCCCC1)N1CCC(n2nnc3ccccc32)CC1,10.5
15,Cc1cc(=O)oc(C)c1C(=O)N1CCN(C(c2ccccc2)c2ccccc2)CC1,3.57
16,c1csc(-c2nnc(COc3ccc4c(c3)OCO4)o2)c1,7.83
17,CC(/C=C/c1ccc(C)o1)=C\C(=O)O,10.6
18,CCOc1ccccc1NC(=O)CSc1nnc(Cn2c(=O)sc3ccccc32)n1C,-37.3
19,C/C(=N\Nc1nc(N2CCCCCC2)nc(N2CCCCCC2)n1)c1ccccc1,12.8
20,C#CCn1cccc(C(=O)Nc2ccc(OC)cc2)c1=O,12.9
21,CC(C(=O)Nc1cccc(S(=O)(=O)N2CCOCC2)c1)N1CCN(C/C=C/c2ccccc2)CC1 (centres unmarked),-32.5
22,CC1CS(=O)(=O)CCN1N=Cc1ccc([N+](=O)[O-])o1 (centres unmarked),15.9
23,C=CCNC(=O)c1ccccc1NS(=O)(=O)c1ccc(OC)c(C(=O)N2CCOCC2)c1,14.9

row,Structure (SMILES),"hERG current change (%, negative = inhibition) at 1uM [%]"
1,Cc1c(Oc2ccc(C(F)(F)F)cc2[N+](=O)[O-])ccc2c3c(c(=O)oc12)CCC3,4.93
2,COc1cc(CCC(=O)Nc2c(C(=O)N3CCN(c4ccccc4OC)CC3)oc3ccccc23)on1,8.38
3,COc1cc(C2C(C(=O)c3ccco3)=C(O)C(=O)N2Cc2ccccc2)ccc1O (centres unmarked),19.9
4,N#Cc1cc2c(nc1SCC(O)CS(=O)(=O)Cc1ccccc1)CCCC2 (centres unmarked),-3.78
5,Cc1ccc(C(=O)COC(=O)CNC(=O)c2ccccc2)s1,0.568
6,O=C(COC(=O)C(Cc1ccccc1)NC(=O)c1ccco1)NC1CC1 (centres unmarked),7.91
7,COc1ccc(CCNC(=O)c2ccc(CNS(=O)(=O)c3cccc(Cl)c3)cc2)cc1OC,6.6
8,CCC1(c2ccccc2)NC(=O)N(CC(=O)NC2(C#N)CCCCC2)C1=O (centres unmarked),-0.853
9,O=C(NCc1ccc(/C=c2\sc3n(c2=O)CCN=3)o1)C(=O)Nc1ccccc1,-2.32
10,Nn1c(COc2ccccc2)nnc1SC(F)F,8.28
11,COc1ccc(S(=O)(=O)N2CCCCCC2)cc1C(=O)N(C)Cc1ccccc1F,6.9
12,O=S1(=O)CCO[C@H]2Cc3ccccc3[C@H]2N1Cc1cccc(F)c1,7.36
13,C/C=C/c1ccccc1OCc1ccc(C(=O)OC)o1,11.4
14,CCc1nn2c(=O)cc(COC(=O)c3ccc(SC)cc3OC)nc2s1,10.5
15,COc1ccc(S(=O)(=O)N2CCCCCC2)cc1C(=O)N(C)CC(=O)Nc1c(Cl)cccc1Cl,4.23
16,CCCCc1ccc(NC(=O)COc2ccc(C(=O)Nc3ccccc3OCC)cc2)cc1,13.9
17,COc1cccc(NC(=S)N(CCCN2CCCC(C)C2)Cc2cccs2)c1 (centres unmarked),-30.2
18,Cc1ccc(NC(=O)c2ccccc2)cc1OC(=O)c1ccccc1,15
19,COc1ccc2nc(N3C(=O)C(O)=C(C(=O)c4ccco4)C3c3ccccc3OC)sc2c1 (centres unmarked),4
20,C#CCNC(=O)C1=C[C@@H](c2csc3ccccc23)C[C@@H](OCc2ccc(CO)cc2)O1,8.8
